Test results published in publication PMC11995724, “Antibiotic target discovery by integrated phenotypic and activity-based profiling of electrophilic fragments” (Cell chemical biology, 2025).
Among all 3,200 compounds or so, about 110 (3.4%) showed an effect of 50% or more. Some of the results follow.

tested on: T1, V. cholerae SAD30; set-up: species or system S. aureus MSSA476 (TSB) or V. cholerae SAD30 (LB); 384-well bacterial growth screen at 25 uM, OD600 relative to DMSO control; settings: relative growth, OD600, LB; 25 µM; inhibitor
T1 construct: SAD30

SMILES | % of control remaining [%]
C=CC(=O)Nc1ccc(C(=O)N[C@@H]2CCN(C(C)=O)C2)cc1 [2-F20, N-[(3R)-1-acetylpyrrolidin-3-yl]-4-(prop-2-enamido)benzamide] | 92.975
C=CC(=O)Nc1ccc(F)cc1C(C)(F)F [1-C16, N-[2-(1,1-difluoroethyl)-4-fluorophenyl]prop-2-enamide] | 89.8356
COc1ccc2[nH]c(C)c(C(=O)CCl)c2c1 [10-L05, 2-chloro-1-(5-methoxy-2-methyl-1H-indol-3-yl)ethan-1-one] | 103.176
Cc1cc(C(=O)CCl)c(C)n1Cc1ccccc1Cl [10-P16, 2-chloro-1-{1-[(2-chlorophenyl)methyl]-2,5-dimethyl-1H-pyrrol-3-yl}ethan-1-one] | 103.643
CC(Cl)C(=O)N1CCCCC1c1cnn(C)c1 (stereo not shown) [7-A03, 2-chloro-1-[2-(1-methyl-1H-pyrazol-4-yl)piperidin-1-yl]propan-1-one] | 97.5384
CN(CC(=O)Nc1ccc(F)cc1)C(=O)CCl [4-B05, 2-chloro-N-{[(4-fluorophenyl)carbamoyl]methyl}-N-methylacetamide] | 108.518
C=CC(=O)N1CCC(C(=O)N[C@]2(C(=O)OC)CC[C@@H](C)CC2)CC1 [3-E17, methyl (1r,4r)-4-methyl-1-[1-(prop-2-enoyl)piperidine-4-amido]cyclohexane-1-carboxylate] | 101.088
Cc1nc2cc(=O)[nH]n2c(C)c1CNC(=O)C(C)Cl (stereo not shown) [7-B07, 2-chloro-N-({5,7-dimethyl-2-oxo-1H,2H-pyrazolo[1,5-a]pyrimidin-6-yl}methyl)propanamide] | 88.5511
COc1cc2c(cc1OC)C(c1ccccc1)N(C(=O)CCl)CC2 (stereo not shown) [6-K12, 2-chloro-1-(6,7-dimethoxy-1-phenyl-1,2,3,4-tetrahydroisoquinolin-2-yl)ethan-1-one] | 94.0373
CC1CCCCC1NC(=O)C(C#N)=Cc1ccc(N2CCOCC2)cc1 (stereo not shown) [8-I06, 2-cyano-N-(2-methylcyclohexyl)-3-[4-(morpholin-4-yl)phenyl]prop-2-enamide] | 76.2067
O=C(CCl)NCc1ccccc1[N+](=O)[O-] [6-A22, 2-chloro-N-[(2-nitrophenyl)methyl]acetamide] | 107.84
C=CC(=O)Nc1c(C)cccc1SCC(=O)N(C)C [1-E13, N-(2-{[(dimethylcarbamoyl)methyl]sulfanyl}-6-methylphenyl)prop-2-enamide] | 88.7892
CC(C)NC(=O)C(C#N)=Cc1ccc2c(c1)OCCO2 [9-E11, 2-cyano-3-(2,3-dihydro-1,4-benzodioxin-6-yl)-N-(propan-2-yl)prop-2-enamide] | 88.1713
CN(C)c1ccc(C=C(C#N)C(N)=O)cc1 [9-O04, 2-cyano-3-[4-(dimethylamino)phenyl]prop-2-enamide] | 89.8029
O=C(CCl)Nc1nnc(-c2ccccc2Cl)s1 [6-K17, 2-chloro-N-[5-(2-chlorophenyl)-1,3,4-thiadiazol-2-yl]acetamide] | 95.8574
C=CC(=O)N1CCOC2(CCS(=O)(=O)C2)C1 (stereo not shown) [2-C06, 9-(prop-2-enoyl)-6-oxa-2lambda6-thia-9-azaspiro[4.5]decane-2,2-dione] | 96.2173
C=CC(=O)NCc1ccc(C(=O)N2CCC(C#N)CC2)cc1 [3-P05, N-{[4-(4-cyanopiperidine-1-carbonyl)phenyl]methyl}prop-2-enamide] | 107.793
CC(Cl)C(=O)c1ccc2c(c1)NC(=O)CO2 (stereo not shown) [10-P12, 6-(2-chloropropanoyl)-3,4-dihydro-2H-1,4-benzoxazin-3-one] | 105.046
COc1ccccc1CN1C(=O)C=CC1=O [10-P21, 1-[(2-methoxyphenyl)methyl]-2,5-dihydro-1H-pyrrole-2,5-dione] | 42.8599
CC(Cl)C(=O)NCCc1csc(N2CCCC2)n1 (stereo not shown) [7-O08, 2-chloro-N-{2-[2-(pyrrolidin-1-yl)-1,3-thiazol-4-yl]ethyl}propanamide] | 73.0877
COc1ccccc1NC(=O)C(C#N)=Cc1ccccc1F [8-E11, 2-cyano-3-(2-fluorophenyl)-N-(2-methoxyphenyl)prop-2-enamide] | 73.2155
CCOc1ccc(-n2c(C)cc(C(=O)CCl)c2C)cc1 [10-K08, 2-chloro-1-[1-(4-ethoxyphenyl)-2,5-dimethyl-1H-pyrrol-3-yl]ethan-1-one] | 98.9675
C=CC(=O)N1CCC(NC(C)=O)(c2noc(C)n2)C1 (stereo not shown) [2-G16, N-[3-(5-methyl-1,2,4-oxadiazol-3-yl)-1-(prop-2-enoyl)pyrrolidin-3-yl]acetamide] | 100.077
C=CC(=O)NC1CCC(n2c(C)ccc2C)CC1 (stereo not shown) [2-E19, N-[4-(2,5-dimethyl-1H-pyrrol-1-yl)cyclohexyl]prop-2-enamide] | 98.2245
N#CC(=Cc1ccc(Cl)cc1Cl)C(=O)Nc1nccs1 [9-H19, 2-cyano-3-(2,4-dichlorophenyl)-N-(1,3-thiazol-2-yl)prop-2-enamide] | 79.4697
C=CC(=O)Nc1nc2cc(C(F)(F)F)ccc2n1Cc1ccco1 [1-G11, N-{1-[(furan-2-yl)methyl]-5-(trifluoromethyl)-1H-1,3-benzodiazol-2-yl}prop-2-enamide] | 79.8206
C=CC(=O)NC(c1ccc(F)cc1)C1CC1 (stereo not shown) [3-H20, N-[cyclopropyl(4-fluorophenyl)methyl]prop-2-enamide] | 91.0311
COc1ccc(-n2c(C)cc(C(=O)CCl)c2C)cc1 [10-I12, 2-chloro-1-[1-(4-methoxyphenyl)-2,5-dimethyl-1H-pyrrol-3-yl]ethan-1-one] | 93.9801
